We go through 167 variants from the RNAGym collection of RNA variant scans (doi:10.7554/elife.90254).

To fix the notation:
B1: OR4K15 (parent)
chain: GUUAACGGUCAUAGGCCAUGGAAACUAGGAGCACCAUUUCGCUGCCAGUGAAGAAAUGAACAAAGAAAAUCUGGGCCAGGCAGGCAUCAAAAGAAAUAGUCUUGCGCUCAACCAGAAAGUCUGUAAUCAUUUUAAGGGUA

The source gives no read counts; variants with many changes may rest on few reads.

This series covers variants of B1. In words: self-cleavage, relative activity (ratio to wild type); higher = more cleavage; in vitro, sequencing; the parent is a self-cleaving ribozyme.
In the case of G21A A24C A118G A129G, the self-cleavage was 0.51.
Turning to A22C A64U A82U, the self-cleavage was found to be 0.26.
Regarding G21C C71U U102C A116U A117G, the self-cleavage was found to be 0.09.
As to A18U A23G U72C C85U A92G, the self-cleavage is 0.2.
U19C A111U A117G U132C: the self-cleavage is 0.12.
As to U19C A68G U72C, the self-cleavage amounted to 0.04.
As to A18U A67G A82U A96G, the self-cleavage amounted to 0.18.
With U19A A54G A78U G106C the figure was 0.01.
On to U19C A52G G74A, for which the self-cleavage was determined as 0.24.
With A18U A54G A60U, the self-cleavage stood at 1.66.
For the variant G21U A23C A33G A63G, the self-cleavage is 1.48.
As for A18U U43C U57C A90G U102C, the self-cleavage was determined as 1.58.
For A18U A78U A94G, the self-cleavage is 0.46.
For the variant A18U A64G U102C A134G, the self-cleavage worked out at 1.94.
With U19C U39C A78U the figure was 0.48; with G21U A22G U130C, 1.25; with A18U A23G U57C A91G U97C A118G U133C, 0.33.
With U19C A63G A64G A110U, the self-cleavage was 1.08.
As to U19C A30G A117U U122C, the self-cleavage is 0.49.
In the case of U19C A22G A52G A114U, the self-cleavage was found to be 0.07.
As to A18U A23G A24C U39C A55G, the self-cleavage stood at 1.34.
As for A18G U39C G74U, the self-cleavage stood at 0.21.
A18G U39C A66C U72C: the self-cleavage stood at 0.24.
In the case of A18U A22G U70A, the self-cleavage is 0.87.
Take U19C U49C A94U: the self-cleavage amounted to 1.54.
As to A18U A66U U70C A91U, the self-cleavage worked out at 0.47.
Turning to U19C A24C U70C A111G, the self-cleavage was 0.02.
With U19A U38A G50C the figure was 1.35; with A18U U39A A62G A94G, 1.34.
Turning to U19C A52G A96G, the self-cleavage came out at 2.32.
As for U19C A47U A134G, the self-cleavage worked out at 0.74.
Under U19A U38C A66G U102C stands 1.79; under G21A A33G A96U A114G, 0.16; under U19C C32U U49A A96G U103C A126G, 0.38.
Under U19A G65A A67U A96G A118G stands 1.52; under U19A A55G G106C U139C, 0.01; under U19C U39C A55U, 1.59.
Turning to U19C A55G U100A, the self-cleavage came out at 0.2.
In the case of U19C A52G A67U U124G A140C, the self-cleavage was found to be 0.25.
Regarding U19A U108C A114U U132A, the self-cleavage turned out to be 0.01.
As for A18G U26C A118G, the self-cleavage came to 1.07.
With U19C A63G A117G the figure was 1.26; with U19C U87C A117G, 1.8; with G20A C40U A110G U124C, 0.06.
Turning to U19A A62G C76G C113G, the self-cleavage was 0.02.
In the case of A18U A86G U97C, the self-cleavage was determined as 0.76.
In the case of U19C A33U A52G, the self-cleavage came to 1.5.
With U19C C76A C128U the figure was 0.14.
With A18G U103C U131C the figure was 0.67.
With A22C U70C A98G the figure was 0.12.
A18U A78G G83A A114G: the self-cleavage was found to be 0.05.
On to A18G U49A U131A, for which the self-cleavage came out at 0.48.
On to U19C A23G G28A A66G A110G U122C, for which the self-cleavage came to 0.07.
For A18U U19C A23G A33G A90G A95G, the self-cleavage amounted to 1.5.
Consider U19G U57C U70A A126G, for which the self-cleavage is 0.2.
Take U19C A55G G79A U100C U120C: the self-cleavage was 0.05.
As to U19C A91G A117G, the self-cleavage worked out at 0.52.
Take U19C A63G A134G: the self-cleavage was determined as 1.13.
Regarding G21A U72G A82G U132C, the self-cleavage worked out at 0.22.
For U19C A23C A33G U49A, the self-cleavage came out at 0.
For A22G A23G A47G U100C U103A, the self-cleavage was determined as 1.4.
Take G20U U43A A56G C128A: the self-cleavage came out at 1.11.
For G21A A92G U108A A125G, the self-cleavage amounted to 0.
On to A22C U43C A86U, for which the self-cleavage is 2.2.
Take U19A U43C U103A: the self-cleavage is 0.69.
As for U19A A36U A78G, the self-cleavage came to 0.33.
As for U19A A62U U97C U108C A126G U139C, the self-cleavage is 0.
Turning to U19A A54G A68G A118G, the self-cleavage was 0.37.
Take A18U A55G G84A U102A: the self-cleavage stood at 1.69.
In the case of A18U A54G A63G U103A U132C, the self-cleavage was determined as 0.39.
In the case of A18U G31A G75C A126G, the self-cleavage came out at 0.13.
As to G20A A30G U100C U124C, the self-cleavage was 1.58.
Under A22G A23G A30G U103C stands 0.35; under U19G A89G U130C U132C, 0.6.
Take U19A A63G A68U: the self-cleavage was 1.89.
A18U A55G U122A: the self-cleavage is 1.03.
Under A18U U43C A59G G73U A86G A118G stands 0.05; under U19C U38A A111C, 0.04.
Turning to A18G U43C A54G A95G, the self-cleavage amounted to 2.38.
Take U19C U37C A98G A111G: the self-cleavage is 0.
With U19C A22U A54G, the self-cleavage came to 1.86.
With U19A A91G A96G A135U, the self-cleavage turned out to be 1.17.
Consider U19A U49C A64G A67G, for which the self-cleavage turned out to be 1.
U19C G53U A86U U122C U139A: the self-cleavage was 1.57.
On to U19A A62U U72C, for which the self-cleavage worked out at 0.31.
For the variant U19A U38C A117G U122C, the self-cleavage is 1.73.
For A18U G106C A114G, the self-cleavage worked out at 0.01.
With U19C A56G U103A A140G, the self-cleavage was found to be 0.34.
On to A18U U100C A117G, for which the self-cleavage was determined as 2.95.
Under A18G U108A A114G stands 0.01; under A18G U70C A116G, 2.15; under U19A U37C C105A, 0.03.
Regarding A18U G48A A59G A68G, the self-cleavage was found to be 0.93.
Take A18G U49C A68G A89U A117G U132C: the self-cleavage stood at 1.89.
A18G U38C U49C A66G G83A A118G A129G: the self-cleavage came out at 0.89.
Under U19C A30C U38C A89G A98G A117G A140G stands 0.68.
Regarding U19A A24G A27G, the self-cleavage is 1.05.
For A18G U39A A68G A117G, the self-cleavage was determined as 1.78.
With U19A A94G G104A, the self-cleavage came out at 0.04.
Under A22G A23G A24C A140G stands 0.67.
Under A18U A110U A129G U139A A140G stands 0.72.
With A18U A89G A118G U130C U139C the figure was 0.37; with A18U U49C A126G, 0.33; with A18U U26C A60G G73A, 0.05.
Regarding U19C U39A U43C U108C, the self-cleavage was 0.02.
As for U19C A69G C105U G136A, the self-cleavage was determined as 0.34.
A18U U37C A114U: the self-cleavage is 0.02.
With U19C C40A A135G, the self-cleavage is 1.22.
In the case of A18G U37C U130C, the self-cleavage came to 1.19.
On to U19C A51U A78G A110G, for which the self-cleavage amounted to 0.09.
Consider U19A A23G U139C, for which the self-cleavage was 1.24.
As for U19C A64G G75A G80U A86U G99U, the self-cleavage was 0.02.
Under U19C A114U U132C stands 0.05.
Under A22C A68G U122C stands 0.49; under U19C A27C U57C, 1.12; under A18U A23G U37C A126G, 1.09.
For the variant U19A A62G A67G A94G, the self-cleavage was 0.65.
For the variant A18U U38C A69G A95G A125U U130C, the self-cleavage stood at 1.56.
Regarding U19C A66G U132C, the self-cleavage was 1.9.
With A18U A23G A90G A94G U102A, the self-cleavage came to 0.52.
Under U19C A24C U37C stands 1.42; under U19G A30U A134G, 1.78; under A18G U19C U57C A90G, 0.24.
With U19C U100A A111G A117U U127C the figure was 0.
G20U A60G A96G A117G U122C: the self-cleavage turned out to be 1.86.
Regarding A18U A55G U120A U122C, the self-cleavage worked out at 0.94.
With U19C A30G U103C U130C, the self-cleavage came out at 0.35.
Turning to U19C A59G A66U, the self-cleavage is 1.38.
On to A18U A23G A63G U103C, for which the self-cleavage was 0.96.
As to U19A U57C A66U A118G A129U U131C, the self-cleavage was 0.09.
Under U19A A116G U132C stands 0.91; under A18G U102A U122C, 0.74; under U19A A59U A98G U120C, 0.21.
Under U19A A59G A64U stands 1.22; under G20A A36G A78G, 0.47; under U19A A91G A94G, 1.47.
Regarding U19A U37C U43C A91G A117G A118G, the self-cleavage is 1.18.
With A18G U38C A56G C77U, the self-cleavage came out at 1.65.
With U19C A22G U38C A116G A126G A140G the figure was 0.74.
Consider U19C A86G A95G, for which the self-cleavage amounted to 1.66.
U19C A30G U122C: the self-cleavage was determined as 2.19.
For U19C U49A A116G U130C, the self-cleavage is 0.24.
With U19C A23G A36U A94G, the self-cleavage worked out at 1.34.
For G20U A33G U122C, the self-cleavage worked out at 0.2.
For A18U U43C A67G A68G G84A U87A, the self-cleavage amounted to 0.9.
On to A18U G80A A95G C105U, for which the self-cleavage was 0.12.
With A18U A24C A66G A98C C112U the figure was 0.04; with A18U U102C U133A, 1.93; with G21A A22G A78C G99A, 0.17.
As for U19A U26C U43C C71A, the self-cleavage came to 0.3.
Under A18U A22G A82G A91G A92G stands 0.67.
For the variant A18U A27G C45U A54G, the self-cleavage amounted to 1.31.
Under A18U U19C A67G U102A C113U stands 0.11.
With U19C A24G A36C, the self-cleavage was found to be 1.81.
With A18G U37C U43C A51G the figure was 1.43; with G21U U39A U72C, 0.22; with A18U A52G A92G, 1.21.
Consider A18U U70C U131C, for which the self-cleavage came to 0.29.
With A18U A60G A90G, the self-cleavage was determined as 0.75.
With U19C A30C A89G, the self-cleavage worked out at 1.33.
Under U19C G58U A94G stands 1.61; under U19C A24G A82G, 0.11; under U19A G58A G84A, 1.8.
Turning to A18U A33G A56G U130C, the self-cleavage worked out at 0.58.
For A18U A54G A64U U72C, the self-cleavage came to 0.2.
Under U19C A24U A96G stands 0.91; under U19C A64G G104U, 0.01.
